# According to PubChem BioAssay AID686971 (National Center for Advancing Translational Sciences (NCATS), 2013):
# Several values for one entry are separate records, joined by “and”; a condition that tells them apart may be missing. Equal values may be shown once. About 7,500 (2.1%) of roughly 360,000 compounds were called active. Inconclusive means that the source gave no clear call. Such entries were picked first, then a sample of the others. Calls come from the whole dose curve; as a rule, active = well fitted cell-killing curve with a large enough effect; inconclusive = small, poorly fitted or top-dose-only effect, or effect the other way, or another doubt; inactive = no such curve, though single readings can be large or run the other way. Potencies of inconclusive entries are left out as doubtful fits.
# Assay: qHTS for induction of synthetic lethality in tumor cells producing 2HG: qHTS for the HT-1080-IDH1KD cell line;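 for activity, negative = toxicity: 0% = DMSO wells and -100% = cell-free medium wells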
# Settings: HT-1080 IDH1 knockdown viability, ATP luminescence, 48 h; activity, negative = toxicity: at 46.1 µM (top of the series) unless noted
# Procedure, shortened: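 CellTiter-Glo luminescence after 48 h compound exposure at 37 degrees C of IDH1-knockdown HT-1080 cells in 5% FBS RPMI. %Activity scaled between DMSO wells and cell-free media wells, with curves fitted and assigned curve classes.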
# Potency is the fitted concentration of half-maximal effect; tags give direction and shape of the fitted curve.
SMILES,"activity, negative = toxicity",Potency
COc1ccc(CCNCc2ccc(SC)cc2)cc1,inactive: -20.8%,–
Brc1ccc(-[n+]2c(-c3ccccc3)cc(-c3ccccc3)cc2-c2ccccc2)cc1,–,active: 13 µM
[O-]c1ccccc1-[n+]1c(-c2ccccc2)cc(-c2ccccc2)cc1-c1ccccc1,–,"inconclusive [cytotoxic, single point]"
O=C1NCN(c2ccccc2)C12CCN(C(c1cc3ccccc3o1)c1nnnn1C1CCCC1)CC2 (stereo not drawn),–,"inconclusive [cytotoxic, single point]"
Cc1ccc2c(c1)C1CN(C)CCC1N2C(=O)Nc1ccc(Cl)cc1 (stereo not drawn),–,"inconclusive [cytotoxic, single point]"
COC(=O)C1=C(c2ccc(-c3ccccc3)c(F)c2)C[C@@H]2CC[C@H]1N2C(=O)NC(C)C,inactive: -11%,–
Oc1ccc(Cl)c(Cl)c1Cl,inactive: 4.02%,–
COc1ccc(-n2nnnc2C(C2CC2)N2CCC(n3c(=O)[nH]c4ccccc43)CC2)cc1 (stereo not drawn),–,"inconclusive [cytotoxic, partial curve]"
COC(=O)C1=C(c2ccc(Cl)c(C(F)(F)F)c2)C[C@@H]2CC[C@H]1N2C(=O)N1CCC(O)(c2ccc(Cl)cc2)CC1,–,"inconclusive [cytotoxic, single point]"
O=[N+]([O-])c1ccc(Cl)c([N+](=O)[O-])c1,–,active: 11.2 µM and active: 18.4 µM
COc1ccc(CNCCC(c2ccc(OC(C)C)cc2)C(C)C)cc1OC (stereo not drawn),–,"inconclusive [cytotoxic, single point]"
CC1=C(N2CC2)C(=O)C(CO)=C(N2CC2)C1=O,–,active: 0.0058 µM
CCOc1cc2c(cc1OCC)-n1cccc1C(c1ccc(OC)c(O)c1)NC2 (stereo not drawn),inactive: -3.46%,–
O=c1[nH]c2ccccc2n1C1CCN(C(CCc2ccccc2)c2nnnn2-c2ccc3c(c2)OCCO3)CC1 (stereo not drawn),–,active: 14.6 µM
c1ccc2c(c1)[IH]c1ccccc1-2,–,active: 0.461 µM
CCOC(=O)c1ccccc1OC(=O)NNc1ccccc1,–,active: 11.6 µM
Cc1cc(C)n(-c2nc(SCCN(C)C)c3c4c(sc3n2)CCCC4)n1,–,"inconclusive [cytotoxic, partial curve, poor fit]"
CCCCn1nnnc1C(c1ccc(OC)cc1)N1CCC2(CC1)C(=O)NCN2c1ccccc1 (stereo not drawn),–,"inconclusive [cytotoxic, single point]"
COc1ccc(C(c2nnnn2-c2ccc(OC)cc2)N2CCC(n3c(=O)[nH]c4ccccc43)CC2)cc1 (stereo not drawn),–,"inconclusive [cytotoxic, single point]"
Cc1cccc(C)c1-n1nnnc1C(c1cccs1)N1CCC2(CC1)C(=O)NCN2c1ccccc1 (stereo not drawn),–,"inconclusive [cytotoxic, single point]"
NC(=O)C1(N2CCCCC2)CCN(Cc2ccccc2)CC1,inactive: 7.02%,–
CCCCCCC(C)(C)c1ccc([C@@H]2C[C@H](O)CC[C@H]2CCCO)c(O)c1,–,active: 4.61 µM
Cc1nc2cc(C(F)(F)F)ccc2n1C1CCN(Cc2nnnn2Cc2ccc3c(c2)OCO3)CC1,–,active: 29.1 µM
CCOP(=O)(OCC)/C(=N/OC(=O)c1ccc(OC)cc1)C(N)=O,–,"inconclusive [cytotoxic, partial curve, poor fit]"
C#CCN1C(=O)C(O)(CC(=O)c2ccc(OC)c(OC)c2)c2ccccc21 (stereo not drawn),–,"inconclusive [cytotoxic, single point]"

SMILES,"activity, negative = toxicity",Potency
Cc1cccc(-n2c(-c3ccc([N+](=O)[O-])cc3)nc3ccccc3c2=O)c1,inactive: -4.08%,–
C#CCN1C(=O)C2(C(C#N)=C(N)OC(C)=C2C(=O)OCc2ccccc2)c2ccccc21 (stereo not drawn),inactive: -23.3%,–
O=C(CCl)Nc1nccs1,–,"inconclusive [cytotoxic, single point]"
C=C(Cl)CSC(=S)N(CC)CC,–,"inconclusive [cytotoxic, single point]"
COC(=O)C1=C(c2cc3ccccc3o2)C[C@@H]2CC[C@H]1N2C(=O)N1CCCCC1,–,active: 10.3 µM
Fc1cccc(-c2ccc3c(c2)CN(c2cccc(Cl)c2)Cc2cnnn2-3)c1,–,"inconclusive [cytotoxic, single point]"
Cc1cc(N=Nc2ccccc2C)ccc1N,inconclusive: -33.7% [cytotoxic],–
CCCCN(Cc1ccccc1)C1CCN(CCc2ccccc2)CC1,–,"inconclusive [cytotoxic, single point]"
COc1cc(C2C(C#N)=C(N)OC3=C2C(=O)CC(C)(C)C3)ccc1OC(=O)N1CCOCC1 (stereo not drawn),–,"inconclusive [cytotoxic, single point]"
CCc1ccc(CN2CCN(Cc3cc(Br)ccc3O)CC2)cc1,–,"inconclusive [cytotoxic, single point]"
C[C@H]1CCC[C@@H](O)CCC/C=C/c2cc(O)cc(O)c2C(=O)O1,–,active: 8.91 µM
COc1cc(C(=O)N/N=C/C23CC[C@@H](O)CC2(O)CC[C@@H]2[C@@H]3CCC3(C)C(C4=CC(=O)OC4)CCC23O)ccc1O (stereo partly drawn),–,active: 23.1 µM
CC(=NCc1ccco1)c1c(C)[nH]n(-c2nc3ccccc3s2)c1=O,–,"inconclusive [cytotoxic, partial curve]"
O=C(Nc1ccccc1)c1cccn(Cc2ccccc2)c1=O,–,"inconclusive [cytotoxic, partial curve]"
ClCCN(CCCl)c1ccc(-n2cnc3c(Cl)ncnc32)cc1,–,active: 23.1 µM
COC(=O)C1=C(c2ccc3ccccc3c2)C[C@@H]2CC[C@H]1N2C(=O)NCc1ccc(F)cc1,–,"inconclusive [cytotoxic, single point]"
C=CC1CN2CCC1CC2[C@@H](OC(=O)c1ccc(OC)cc1)c1ccnc2ccccc12 (stereo partly drawn),–,"inconclusive [cytotoxic, partial curve]"
O=C1Nc2ccccc2/C1=C/c1cnc[nH]1,–,"inconclusive [cytotoxic, single point]"
S=C(NCCc1ccccc1)N1Cc2cc(Br)ccc2-n2nncc2C1,–,"inconclusive [cytotoxic, single point]"
Cc1ccccc1Cc1c(C)nc2c(C(=O)NCc3ccco3)cnn2c1C,–,"inconclusive [cytotoxic, single point]"
C/C(=N\Nc1ccccc1)c1c(O)[nH]c(=O)[nH]c1=O,–,active: 4.11 µM
Cc1ccc(CN2CCSc3ccc(C(=O)N4CCC5(CC4)OCCO5)cc32)cc1,inactive: -12.1%,–
Clc1ccc2[nH]c3c(c2c1)CCNC3,inactive: -19.6%,–
COc1ccc(CN2CC=C(c3ccc(F)cc3)CC2)cc1Br,inactive: -18.9%,–
Brc1ccc(Nc2c3c(nc4ncnn24)CCC3)cc1,–,"inconclusive [cytotoxic, single point]"

SMILES,"activity, negative = toxicity",Potency
CC[C@H]1CN(C)C[C@@]2(C(=O)OC)Cc3c([nH]c4ccccc34)C(=O)C[C@@H]12,inactive: 2.14%,–
CC(C)(O)/C=C/C(=O)[C@](C)(O)C1[C@H](O)C[C@@]2(C)C3CC=C4C(C[C@H](O)[C@@H](O)C4(C)C)[C@]3(C)C(=O)C[C@]12C (stereo partly drawn),–,active: 1.3 µM
Cc1ccccc1NCC(=O)N/N=C/C(Br)=C/c1ccccc1,–,active: 17.8 µM
CCCCCSc1cc(O)c(C(CNC)C(C)C)cc1OC (stereo not drawn),–,"inconclusive [cytotoxic, single point]"
Cc1cc(C=C2C(=O)NC(=S)NC2=O)c(C)n1C1CCCC1,–,"inconclusive [cytotoxic, single point]"
CN1C(=O)C(C2c3ccccc3C(=O)N2Cc2ccccc2)C(=O)N(C)C1=O (stereo not drawn),inactive: 17.4%,–
CCOP(=O)(CCP(=O)(OCC)OCC)OCC.C[CH2][Sn]([Cl])([Cl])[CH2]C,–,active: 4.61 µM
CCN(CC)C(=O)c1ccc(NC(=O)CSc2nnnn2-c2cc(OC)ccc2OC)cc1,inactive: -21.8%,–
CSCCC(c1nnnn1C1CCCCC1)N1CCC(n2c(=O)[nH]c3ccccc32)CC1 (stereo not drawn),–,"inconclusive [cytotoxic, single point]"
CCOC(=O)C1(c2ccccc2)CCN(CCC(C#N)(c2ccccc2)c2ccccc2)CC1,–,"inconclusive [cytotoxic, partial curve]"
CC1OC(NCCc2ccccc2)C(O)C(O)C1O (stereo not drawn),inactive: 16%,–
O=S(=O)(c1ccc(F)cc1)N1CN2CCN(C2)C1,inactive: 0.87%,–
COc1ccc(C(=O)OCC2CN2c2cccc([N+](=O)[O-])c2)cc1 (stereo not drawn),inactive: -6.52%,–
CCC(=O)Nc1ccccc1,inactive: 4.34%,–
CSCCC(c1nnnn1Cc1ccccc1)N1CCC(n2c(=O)[nH]c3ccccc32)CC1 (stereo not drawn),–,"inconclusive [cytotoxic, partial curve]"
OC(COCc1ccc(Cl)cc1)CN1CC=C(c2ccccc2)CC1 (stereo not drawn),–,"inconclusive [cytotoxic, single point]"
Cc1cc(C)cc(NC(=O)Cn2c(=O)oc3cc(S(=O)(=O)N4CC(C)CC(C)C4)ccc32)c1 (stereo not drawn),–,"inconclusive [cytotoxic, single point]"
CC12CCC3C(CCC4(O)CC(O)CCC34C=NO)C1(O)CCC2C1=COC(=O)C1 (stereo not drawn),–,active: 0.58 µM
COc1c(C)cc(C(=O)C2CCCN(C3CCOCC3)C2)cc1C (stereo not drawn),inactive: -10.3%,–
CC12CCC(=O)C=C1CCC1C2C(O)CC2(C)C(O)CCC12 (stereo not drawn),inactive: -0.326%,–
CCOP(=O)(Cc1cc(C(C)=O)c(C)o1)OCC,inactive: -3.53%,–
COc1cc2c(cc1OC)C13CCN4CC5=CCOC(CC(=O)O)C(C5CC41)C3N2 (stereo not drawn),inactive: -5.38%,–
C=Cn1ccnc1P(=S)(c1nccn1C=C)C1CCCCC1,–,"inconclusive [rising, single point]"
